# The campaign covered roughly 420,000 compounds. About 50,000 (12%) were called active. Inconclusive means that the source gave no clear call. Such entries were picked first, then a sample of the others. Calls come from the whole dose curve; as a rule, active = well fitted inhibition curve with a large enough effect; inconclusive = small, poorly fitted or top-dose-only effect; inactive = flat fitted curve, though single readings scatter. No potency is given beside an inconclusive call; the fits are too rough.
# Assay: qHTS for Inhibitors of human tyrosyl-DNA phosphodiesterase 1 (TDP1): qHTS in cells in presence of CPT; note: nearly all actives have a fitted effect of over 55% in size
# Conditions: chicken DT40 Tdp1-/-;hTDP1 cells + 20 nM CPT, ATP luminescence, 48 h; activity change, negative = growth inhibition: at 46.2 µM (top of the series)
# Procedure, shortened: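 Chicken DT40 Tdp1-/- cells stably complemented with human TDP1 were seeded at 400 cells/well in medium containing 20 nM camptothecin, exposed to pin-transferred compounds, and grown at 37 °C for at least 48 hr. Viability was read as ATP luminescence.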
# % is set by controls: 0 for no effect and ±100 for the full control effect; potency is the fitted concentration of half-maximal effect; tags give direction and shape of the fitted curve.
SMILES,Potency,"activity change, negative = growth inhibition"
Cc1ccc2[nH]c(=O)c(CN(CCc3ccccc3)Cc3nnnn3CC3CCCO3)cc2c1 (stereo not drawn),"inconclusive [inhibitor, single point]",–
O=C(CSc1nnc(-c2n[nH]c3ccccc23)n1-c1ccccc1)Nc1cccc(Cl)c1,"inconclusive [inhibitor, single point]",–
Cc1ccc(C(=O)/C=C/c2ccc3c(c2)OCO3)o1,active: 18.4 µM,–
Cc1ccc(-c2ccc(/C=N/NC(=O)CN3CCCC3)o2)cc1Cl,"inconclusive [inhibitor, single point]",–
COc1cc(C)ccc1OCCSc1nc2ccc(NC(C)=O)cc2s1,"inconclusive [inhibitor, single point]",–
Nc1[nH]n(-c2ccccc2)c(=O)c1N=Nc1ccc2c(c1)OCCO2,"inconclusive [inhibitor, single point]",–
CCOC(=O)N1CCN(c2cc(N)c([N+](=O)[O-])cc2F)CC1,"inconclusive [inhibitor, single point]",–
COc1cccc(NC(=O)COc2cc(O)c3c(c2)OC(C)(C)CC3=O)c1,"inconclusive [inhibitor, single point]",–
O=Cc1cn(CC(=O)N2CCc3ccccc32)c2ccccc12,–,inactive: -24.9%
Cc1ccccc1CNC(=O)C(=O)NCC1CCCN1S(=O)(=O)c1ccccc1 (stereo not drawn),"inconclusive [inhibitor, single point]",–
O=C(NC(c1ccccc1)c1ccsc1)C1CCN(Cc2ccc(Oc3ccccc3)cc2)CC1 (stereo not drawn),"inconclusive [inhibitor, single point]",–
CC(C)(C)OC(=O)NCCc1nnc(SCc2c(Cl)cccc2Cl)o1,–,inactive: -18.7%
O=C1/C(=C/c2cccnc2)CC/C1=C\c1cccnc1,"inconclusive [inhibitor, single point]",–
Nc1nc(N2CCCCC2)nc(N(c2ccccc2)c2ccccc2)n1,"inconclusive [inhibitor, single point]",–
COc1cccc(-c2csc(N3CCN(C(=S)NCC(C)C)CC3)n2)c1,active: 18.4 µM,–
Cc1cccc(NC(=O)c2ccccc2NC(=O)C2CCCCC2)c1C,–,inactive: -29.3%
Cc1ccc(-n2[nH]c(C)c(/C=N/Nc3ccc([N+](=O)[O-])cc3[N+](=O)[O-])c2=O)cc1,active: 20.6 µM,–
COc1ccc(NC(=O)CC(C)c2ccccc2)cc1S(=O)(=O)N1CCOCC1 (stereo not drawn),"inconclusive [inhibitor, single point]",–
CCOc1ccc(NC(=O)CSc2nc(=O)[nH]c3c2CCC3)cc1,"inconclusive [inhibitor, single point]",–
Cc1ccc(S(=O)(=O)NCC(=O)NCC(=O)N(C)Cc2ccc3ccccc3c2)cc1C,"inconclusive [inhibitor, single point]",–
O=C(CCCC(=O)N1CCCc2ccccc21)N1CCCc2ccccc21,"inconclusive [inhibitor, single point]",–
CN(CC1COc2ccccc2O1)C(=O)CCNS(=O)(=O)c1ccc(F)c(Cl)c1 (stereo not drawn),–,inactive: -27.2%
CCN1C(=NCCc2cccnc2)N[C@@H](c2ccccc2)C(C(=O)OC)=C1C,"inconclusive [inhibitor, partial curve]",–

SMILES,Potency,"activity change, negative = growth inhibition"
CCC(Sc1nnc2c3ccccc3n(C)c2n1)C(=O)Nc1nnc(C(C)C)s1 (stereo not drawn),"inconclusive [inhibitor, single point]",–
N#Cc1ccccc1-c1ccc2ncnc(NCc3cccs3)c2c1,"inconclusive [inhibitor, single point]",–
COC(=O)[C@@H]1C[C@@]2(Br)c3ccccc3N(S(=O)(=O)c3ccccc3)[C@H]2N1C(=O)OC,"inconclusive [inhibitor, single point]",–
CCC1CN(C(=O)N2CCC(C(=O)N3CCN(c4cc(C)ccc4C)CC3)CC2)c2ccccc2O1 (stereo not drawn),active: 16.4 µM,–
CC(C)(C)OC(=O)N[C@@H](C(=O)OC(C)(C)C)c1ccc(Br)cc1,"inconclusive [inhibitor, single point]",–
CC(=O)Cc1nsc(Nc2cccc(C)c2)n1,–,inactive: 12.1%
CC(C)NC(=O)Nc1cccc2c1O[C@H](CN(C)S(=O)(=O)c1cccs1)[C@@H](C)CN([C@H](C)CO)C2=O,"inconclusive [inhibitor, single point]",–
COc1ccc(/C=C(\C#N)C(=O)NCC(c2ccc(F)cc2)N2CCOCC2)cc1 (stereo not drawn),"inconclusive [inhibitor, partial curve]",–
CC1(C)Cc2cccc(OCC(=O)N3CCN(c4ccc([N+](=O)[O-])cc4)CC3)c2O1,"inconclusive [inhibitor, single point]",–
COc1ccc(-c2cc3ccc(O)c(CN4CCCC4)c3oc2=O)cc1OC,"inconclusive [inhibitor, single point]",–
CCc1sc(C(=O)Nc2ccc(OC)c(S(=O)(=O)N3CCOCC3)c2)cc1C,"inconclusive [inhibitor, single point]",–
Oc1cc(-c2nc3ccccc3s2)cc2c1OCCN(Cc1cn[nH]c1-c1ccc(Cl)cc1)C2,"inconclusive [inhibitor, single point]",–
COc1ccc(OC)c(S(=O)(=O)NCCOC23CC4CC(CC(C4)C2)C3)c1,active: 18.4 µM,–
CC(=O)Nc1ccc(SCC(=O)Nc2cc(C(C)(C)C)nn2-c2ccccc2)cc1,"inconclusive [inhibitor, partial curve]",–
CC1(C)N=C(N)NC(Nc2ccccc2)=N1,"inconclusive [inhibitor, partial curve]",–
COc1ccc(-n2c(SCc3cn4c(C)cccc4n3)nc3ccccc3c2=O)cc1OC,"inconclusive [inhibitor, single point]",–
CCc1nc2ccc(C(=O)Nc3cc(-c4ccccc4)ccc3OC)cn2c1N(C)Cc1ccc(OC)cc1,active: 7.31 µM,–
CC(C)CC(=O)Nc1ccc(S(=O)(=O)N2CCCC2)cc1,"inconclusive [inhibitor, partial curve]",–
CCOc1ccccc1C(=O)N/N=C/c1ccoc1,–,inactive: 6.66%
O=C(NCC1CCCO1)C(c1ccc(F)cc1)N(Cc1ccc(F)cc1)C(=O)Cn1nnc(-c2cccs2)n1 (stereo not drawn),–,inactive: -27.6%
Cc1ccc(/C=N/NC(=O)c2nnn(-c3nonc3N)c2C(C)C)o1,–,inactive: -4.8%
CNC(=O)COC(=O)/C=C/c1cccc(F)c1,–,inactive: 7.57%
CCOC(=O)CNC(=O)N(CCOC)CC1CCCN(C2Cc3ccccc3C2)C1 (stereo not drawn),–,inactive: -13.7%

SMILES,Potency,"activity change, negative = growth inhibition"
COc1ccc(C(=O)NCC(c2ccc3c(c2)OCO3)N2CCOCC2)cc1OC (stereo not drawn),–,inactive: -23.4%
CCOC(=O)c1c(C)c(-c2ccccc2)n(CC(=O)Nc2cccc(C)c2C)c1C,active: 13 µM,–
CC1CCc2onc(C(=O)NCc3ccco3)c2C1 (stereo not drawn),"inconclusive [inhibitor, single point]",–
Cc1nn(C)c(Cl)c1S(=O)(=O)N(Cc1ccco1)c1ncnc2nc[nH]c12,–,inactive: -8.77%
Cc1ccc(CN2CCN(Cc3cccn3-c3ccccn3)CC2CCO)cc1 (stereo not drawn),"inconclusive [inhibitor, single point]",–
CCOc1ccc(/C=C/c2nc(C#N)c(NCCCOC)o2)cc1,active: 2.31 µM,–
Cc1ccc(C(=O)NC2(C(F)(F)F)N=C(c3ccccc3)N(C3CCCCC3)C2=O)cc1 (stereo not drawn),"inconclusive [inhibitor, single point]",–
O=C(Nc1ccc(-c2csc(Nc3ccccc3)n2)cc1)c1cc([N+](=O)[O-])cc(C(F)(F)F)c1,"inconclusive [inhibitor, single point]",–
Cc1ccc(S(=O)(=O)Nc2ccc3nc(C)oc3c2)cc1,active: 18.4 µM,–
CN(CCOc1ccc(Br)cc1)CC(O)c1ccccc1 (stereo not drawn),"inconclusive [inhibitor, partial curve, poor fit]",–
CCOc1ccc(/C=N/NC(=O)c2ccc(F)cc2)cc1CN1CC2CC(C1)c1cccc(=O)n1C2 (stereo not drawn),"inconclusive [inhibitor, single point]",–
COc1ccc(CNC(=O)C(c2ccncc2)N(C(=O)Cc2cccs2)c2cccnc2)cc1 (stereo not drawn),–,inactive: 2.01%
CCOC(=O)c1cnc(SC)nc1Oc1cccc(NC(=O)c2cccc(Cl)c2Cl)c1,"inconclusive [inhibitor, single point]",–
CCOC(=O)/C=C1\SCC(=O)N1CC(=O)NC12CC3CC(CC(C3)C1)C2,"inconclusive [inhibitor, single point]",–
COc1cc(OC)c(NC2=NCCCCC2)cc1Cl,–,inconclusive: -32.1% [inhibitor]
COc1ccc(-n2c(=S)[nH]c3cc(C(=O)NCCCN4CCOCC4)ccc3c2=O)cc1,–,inactive: 6.33%
O=C(Cc1cccc2ccccc12)N/N=C/c1ccc(Sc2nc3ccccc3s2)o1,active: 16.4 µM,–
Cc1ccc(C(=O)CSc2ccc(-c3ccncc3)nn2)cc1,"inconclusive [inhibitor, partial curve]",–
CC(C)(C)OC(=O)NCCCC[C@H](NC(=O)c1[nH]cnc1C(=O)Nc1ccc(CNC(=O)OC(C)(C)C)cc1)C(=O)OC(C)(C)C,active: 5.8 µM,–
Cc1ccc2nc(N(Cc3cccnc3)C(=O)CCOc3ccccc3)sc2c1,"inconclusive [inhibitor, single point]",–
Cc1cccc(C(=O)N2CCc3cc(CNS(=O)(=O)c4cccs4)ccc32)c1,active: 23.1 µM,–
COc1ccc(/C([O-])=C(/C(=S)Nc2ccc(C)c(C)c2)n2c[n+](C)c3ccccc32)cc1OC,active: 29.1 µM,–
